From PubChem BioAssay AID1963576 (National Center for Advancing Translational Sciences (NCATS), 2024)
In all, about 46,000 compounds went through this assay and about 60 (0.1%) were called active. Another 3% or so got no clear call; they are omitted. Calls follow the shape of the dose curve; as a rule, active = well fitted inhibition curve with a large enough effect; inconclusive = small, poorly fitted or top-dose-only effect; inactive = no such curve, though single readings can be large or run the other way. The list shows a part of the results.

test: Primary qHTS assay for Inhibitors of ovarian cancer metastasis using an organotypic tumor microenvironment (TME) model.; also: nearly all actives have a fitted effect of over 65% in size;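 as to activity change, negative = inhibition: plate controls were DMSO wells for no effect and tomatine positive control wells for full effect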; conditions: SKOV3ip1-GFP adhesion/invasion on 3D omental model, fluorescence; series mostly up to 45.8 µM; activity change, negative = inhibition: at the top concentration
Method in brief: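 Adhesion/invasion was scored as fixed GFP-labeled SKOV3ip1 cell counts (488/509 nm), normalized to DMSO and tomatine controls. Cancer cells in serum-free medium, with four compound doses (0.36-46 umol/L), sat 2 hr at RT then 16 hr at 37 C on a 48 hr fibroblast/mesothelial/ECM culture.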

outcome, inactive:
COc1ccc(-c2nc3nc(C)cc(N4CCN(c5cccc(C(F)(F)F)c5)CC4)n3n2)cc1
CCOC(=O)c1noc2ncnc(N3CCN(c4cccc(Cl)c4)CC3)c12
CC(C)c1cc(C(=O)NC(C)c2ccccc2)no1 (configuration not stated)
COc1cc(C2N=C(N)Nc3nc4ccccc4n32)ccc1OCC(=O)O (configuration not stated)
COc1ccc(C(CNC(=O)c2cccc([N+](=O)[O-])c2)N2CCOCC2)cc1 (configuration not stated)
Cc1ccc(Cc2cnc(NC(=O)C3Cc4ccc(C)cc4C(=O)O3)s2)cc1 (configuration not stated)
Cc1ccc(CNC(=O)Cn2c(=O)ccc3cc(S(=O)(=O)N4CCCC4)ccc32)cc1
O=c1n(Cc2ccc(F)cc2)nc2n1-c1cc(Cl)ccc1OC2
COc1ccc(NC(=O)C2CCN(c3nc4ccccc4nc3C(F)(F)F)CC2)cc1
O=C(COCc1cc(-c2ccco2)on1)Nc1cccc(O)c1
CN(C)S(=O)(=O)c1ccc2c(c1)N(CC(=O)N1CCN(c3cccc(Cl)c3)CC1)CCS2
CCOC(=O)c1c(NC(=O)CSc2cn(CCNC(=O)c3ccccc3OC)c3ccccc23)sc2c1CCCC2
Cc1nn(CC(=O)N2CCN(c3ccccc3)CC2)c(=O)c2cc3cc(F)ccc3n12
CCc1ccc(NC(=O)CC2C(=O)N(c3ccc(OC)cc3)C(=O)N2Cc2ccc(OC)cc2)cc1 (configuration not stated)
Cc1c(C(=O)NCCc2ccccc2)cccc1-n1cnc2cccnc21
COc1ccccc1N1CCN(S(=O)(=O)CCNC(=O)COc2ccc(F)cc2)CC1

Activity change, negative = inhibition, inactive:
CCOC(=O)N1CCc2c(sc3c2c(=O)n(-c2ccc(Cl)cc2)c(=O)n3Cc2cccc(OC)c2)C1 -3.62%
CCN(Cc1ccccc1)C(=O)c1cc2c(=O)oc3ccc(C)cc3c2s1 -0.132%
Cc1ccc(-c2nc(S(=O)(=O)c3ccc(C)cc3)c(SCC(=O)Nc3ccc(F)cc3)o2)cc1 -8.5%
CCc1ccc(S(=O)(=O)c2nnn3c2nc(Nc2cc(OC)cc(OC)c2)c2cc(Cl)ccc23)cc1 1.11%
Cc1cccc(N2CC(c3nc4ccccc4n3CCC3CCCCC3)CC2=O)c1 (configuration not stated) 4.74%
Cc1cccc2c1-c1sc(C(=O)NCc3ccc(Cl)cc3)cc1CO2 -31.4%
CCOc1ccc(C(=O)Nc2ccccc2C(=O)OCc2cc(=O)n3nc(C4CC4)sc3n2)cc1 2.22%
COc1ccc(CCNC(=O)c2cc3c(s2)-c2c(C)cccc2OC3)c(OC)c1 5.61%
CCCCCSc1nnc2c(n1)OC(CC)Nc1ccc(Br)cc1-2 (configuration not stated) -3.47%
COCCn1c(C)cc(O)c(C(c2ccc(Cl)cc2)N2CCN(c3ccccc3)CC2)c1=O (configuration not stated) 2.18%
COc1ccc(NC(=O)Nc2cccc(OCc3cc(=O)n4cccc(C)c4n3)c2)c(OC)c1 3.56%
CN1C(C(=O)c2ccccc2)=C(NC(=O)c2ccccc2Br)c2ccccc2S1(=O)=O 2.92%
COc1ccc(-c2cc(C(C)=O)c(C)n2CCC(=O)Nc2ccc(C)cc2Cl)cc1 -11.5%
Cc1cc(C)cc(Nc2nc3ccccc3n3cnnc23)c1 5.28%
O=S(=O)(c1ccc2[nH]c3c(c2c1)CCCC3)N1CCN(c2cccc(C(F)(F)F)c2)CC1 2.91%
CCn1c(=O)cc(SCC(=O)NCCc2cccc(C)c2)c2ccccc21 -0.627%
O=c1n(Cc2ccc(Cl)cc2)c2ccccc2c2nc(-c3ccccc3)nn12 -18.2%
CCc1ccc(NC(=O)Cc2csc(COc3cccc(C)c3)n2)cc1 6.82%
Cc1nc2ccc(S(=O)(=O)NC(C(=O)N3CCN(c4ccc(Cl)cc4)CC3)C(C)C)cc2s1 (configuration not stated) -2.77%
CCOc1ccc2oc(=O)cc(CN3CCN(Cc4ccc(F)cc4)CC3)c2c1 -5.61%
O=C(CCCn1c(=O)c2ccccc2n(CC(=O)Nc2cccc(Cl)c2)c1=O)NCc1ccc2c(c1)OCO2 -15.5%
CCC(=O)N1CCc2cc(Br)cc(S(=O)(=O)CCC(=O)N3CCN(c4ccc(OC)cc4)CC3)c21 -15%
CC(=O)c1ccc(N2CCN(c3nc4c(S(=O)(=O)c5ccc(C)c(C)c5)nnn4c4ccc(Cl)cc34)CC2)cc1 3.63%
Cc1cc(C)cc(-n2ccnc2SCC(=O)Nc2ccc(C)cc2C)c1 -10.4%
COc1ccc(C(=O)NCC(c2ccc(N(C)C)cc2)N2CCCC2)cc1 (configuration not stated) -1.77%
COc1ccc(-c2cc(C(=O)NCc3ccc(F)cc3)no2)cc1 -17.7%
COc1cc(NC(=O)CNC(=O)Cn2ccc3ccccc3c2=O)cc(OC)c1OC -7.08%
CC(C)c1ccc(Nc2ncnc3c2nc2n3CCCC2)cc1 -5.72%
CCC(=O)Nc1ccccc1-c1nc2ccccc2n(C(C)C(=O)Nc2cccc(Cl)c2C)c1=O (configuration not stated) 12.8%
COc1ccc(CCNc2nc(-c3ccc(F)cc3)cc(C(F)(F)F)n2)cc1OC -3.83%
CCc1ccc(NC(=O)CN2CCSc3ccc(S(=O)(=O)N4CCCC4)cc32)cc1 6.26%
COC(=O)c1cnn(-c2ccc(C(=O)Nc3ccc(OC(F)(F)F)cc3)cc2)c1N 10.4%
CCOc1ccc(S(=O)(=O)c2cn(C)c3ccccc3c2=O)cc1 -2.18%
CC(NC(=O)c1c2c(nc3ccccc13)C(=O)N(C1CCCCC1)C2)c1ccccc1 (configuration not stated) 5.14%
Cc1ccc(NC(=O)CN2C(=O)CCn3nc(-c4cccn4C)cc32)c(Cl)c1 1.21%
CCOC(=O)C1CCN(C(=O)Cn2ncc3c4ccccc4n(Cc4ccccc4F)c3c2=O)CC1 -7.92%
CN(C)c1ccc(NC(=O)CN2C(=O)c3ccccc3Sc3ccc(C(=O)N4CCCC4)cc32)cc1 -2.54%
CCN(C(=O)c1cccn(Cc2ccccc2C)c1=O)c1ccccc1 4.9%
Cc1ccc(F)cc1NC(=O)c1ccc(Cn2nc(N3CCN(c4ccccc4)CC3)ccc2=O)o1 -11%
O=C(Cn1c(-c2cccs2)cc2cc(F)ccc21)NCCCN1CCN(c2ccccc2F)CC1 -19.1%
Cc1cccc(N2CCN(CCCNC(=O)c3sc4ncccc4c3-n3cccc3)CC2C)c1 (configuration not stated) -8.4%
Cc1nnc(NC(=O)CSc2nnc3c(n2)[nH]c2ccccc23)s1 8.05%
Cc1nn(CCCC(=O)NCc2cccc(Cl)c2)c(=O)c2c1sc1ccccc12 9.71%
O=C(Cn1cc(SCc2ccccc2)c2ccccc21)N1CCCCCC1 1.7%
COc1ccc(-n2nc(C(=O)NCCc3ccc(OC)c(OC)c3)c3c4ccccc4n(C)c3c2=O)cc1Cl -0.624%
Cc1oc(-c2ccc(C(=O)NCCc3ccc(Cl)cc3)cc2)nc1CSc1ccccc1 -5.43%
COc1ccc(-c2cn3nc(N4CCC(C(=O)Nc5ccc(Cl)cc5C)CC4)sc3n2)cc1 -22.1%
CCOc1ccccc1CNC(=O)c1cnc2c(-c3ccc(OCC)c(OCC)c3)c(C)nn2c1C -0.14%
Cc1ccccc1CN1C(=O)c2ccccc2Sc2ccc(C(=O)OCc3ccco3)cc21 -7.71%
Cc1ccc2nc(-c3ccc(Cl)c(NC(=O)c4cccc([N+](=O)[O-])c4C)c3)oc2c1 -8.13%
CCn1ccc2cc(S(=O)(=O)N3CCC(C(=O)NCc4ccc(OC)cc4)CC3)ccc21 2.63%
CCOC(=O)C1CCC(CN(Cc2c(Cl)cccc2Cl)S(=O)(=O)c2ccc(Cl)cc2)CC1 (configuration not stated) -4.86%
O=C(NCc1ccccc1)c1ccc2c(c1)N(Cc1cccc(Cl)c1)C(=O)c1ccccc1S2(=O)=O 2.12%
Cc1ccc(S(=O)(=O)n2nc(C)c(S(=O)(=O)N3CCC(C)CC3)c2C)cc1 -1.41%
Cc1ccc(N2CCN(c3c(CN4CCCC4)c(=O)oc4ccccc34)CC2)c(C)c1 0.812%
COCCCNC(=O)c1c(NC(=O)c2cc(=O)c3ccccc3o2)sc2c1CCCC2 1.61%
Cc1ccc(-c2nc(SCC(=O)N3CCc4ccccc43)c3c(=O)n(C)c(=O)n(C)c3n2)cc1 1.43%
COc1ccc(Cn2c(SCC(=O)Nc3ccc(OC)cc3)nc3ccccc32)cc1 2.51%
COc1cc(/C=C/c2nc3cc(Cl)ccc3c(=O)n2-c2cccc(C(F)(F)F)c2)cc(OC)c1OC -2.07%
CC1CCCN(Cc2c(O)ccc3c(=O)c(Oc4ccc(C(C)(C)C)cc4)c(C(F)(F)F)oc23)C1 (configuration not stated) 12.6%
COc1cc(NC(=O)Nc2nnc(N3CCCCCC3)s2)cc(OC)c1 9.63%
Cc1ccc(-c2nc3c(cnn3-c3ccccc3)c(=O)n2-c2cccc(Cl)c2)cc1 1.56%
COc1cc(OC)c(N(C)C(=O)C2CCCN(c3ncnc4c3nc3n4CCCCC3)C2)cc1Cl (configuration not stated) 1.95%
Cn1c(=O)c(=O)n(C)c2cc(S(=O)(=O)CCC(=O)Nc3cccc(C(F)(F)F)c3)ccc21 6.98%
O=C(NCC1CCN(Cc2cccc(F)c2)CC1)c1cc2ccc3cccnc3c2[nH]1 4.05%
CC1=C(c2ccc(C(C)C)cc2)S(=O)(=O)N=C1N1CCC(C(=O)NCc2ccco2)CC1 -1.91%
CCOc1ccc(NC(=O)c2c(NC(=O)c3cccc(C)c3)sc3c2CCC3)cc1 5.03%
CCOc1ccc(NC(=O)Cn2c(=O)n(Cc3ccccc3)c(=O)c3sc4ccccc4c32)cc1 -16.6%
Cc1cc(C)cc(NC(=O)CN2C(=O)CSc3ccc(S(=O)(=O)N4CCCC4)cc32)c1 7.89%
COc1ccc(CCNc2ncnc3c2c(-c2ccccc2)cn3-c2cccc(Cl)c2)cc1OC -15.1%
C=C(c1ccc(C(=O)O)cc1)c1cc2c(cc1C)C(C)(C)CCC2(C)C -4.35%
Cc1ccc(CNC(=O)Cn2c(=O)cc(-c3ccccc3)c3c(C)nn(C)c32)cc1 2.96%
Cc1ccn2c(=O)c(C(=O)NCCc3ccc(S(N)(=O)=O)cc3)c(O)nc2c1 -4.35%
CCn1c(=O)c2sccc2n2c(CCCC(=O)N3CCN(c4cc(C)ccc4C)CC3)nnc12 5.58%
COc1ccccc1CNC(=O)C1CCN(S(=O)(=O)c2c(C)noc2/C=C/c2cccs2)CC1 -9.62%
Cc1cc(=O)n(Cc2ccc(F)cc2Cl)c2c1c(C)nn2-c1ccccc1 1.27%
